Measured values published in PubChem BioAssay AID463173 (ICCB-Longwood Screening Facility, Harvard Medical School, 2010).
Out of some 52,000 compounds screened, about 1,700 (3.3%) were called active. No stated cut-off is given here; in the data, active means survival mostly below about 52% (no sharp cut-off); inactive means mostly above about 56%. The list shows a part of the results.

Test system: Wild type
Assay: growth inhibition of S. aureus wild type versus tarO mutant, primary screen, teichoic acid synthesis inhibitors, RN4220, OD600 (AID 463173)
Conditions: S. aureus RN4220 wild type/DeltatarO growth, OD600, 18 h, hits give low values, screened at 18.75 µg/mL (by protocol)

| Compound | survival |
| --- | --- |
| Cc1cccc(NC(=O)c2c(NC(=O)c3cccs3)sc3c2CCC(C)C3)c1 (stereo not drawn) | inactive: 75% |
| CCOC(=O)c1c(NC(=O)COc2cc(C)ccc2C(C)C)sc2c1CCCC2 | inactive: 65% |
| COc1ccccc1N1CCN(C(CNC(=O)C(=O)NCCN(C)C)c2cccnc2)CC1 (stereo not drawn) | inactive: 85% |
| COc1cccc(CN2CCc3nc(Nc4ccc5c(c4)OCCO5)ncc3C2)c1OC | inactive: 84% |
| CC(=O)Nc1ccc(OCc2cc(=O)n3ccccc3n2)cc1 | inactive: 67% |
| CCOc1ccc(NC(=O)c2cc(=O)c3cc(CC)ccc3o2)cc1 | inactive: 89% |
| Cc1cccc(NC(=O)CSc2nc(=O)n(Cc3ccncc3)c3c2CCC3)c1C | inactive: 58% |
| Cc1ccc(-c2noc(-c3ccccc3NC(=O)C3CC(=O)N(c4cccc(C)c4)C3)n2)cc1 (stereo not drawn) | inactive: 89% |
| N#CCN(CC#N)C(=O)Cc1cccs1 | inactive: 121% |
| N#CCCn1c(=O)n(CCC#N)c(=O)n(CCC#N)c1=O | inactive: 111% |
| CCOc1ccc(NC(=O)CSc2nc(-c3cccs3)cc(C(F)(F)F)c2C#N)cc1 | inactive: 66% |
| Oc1ccc(/C=C/c2nc(-c3ccccc3O)n(-c3ccccc3)n2)c(O)c1 | active: -1% |
| O=C(Nc1cccc(F)c1)/C(=C\c1cccs1)NC(=O)c1cccs1 | inactive: 104% |
| CCc1ccc(C2=C(C)C(N3CCC(C(=O)Nc4cccc(OC)c4)CC3)=NS2(=O)=O)cc1 | inactive: 111% |
| CCOc1ccc(Nc2c(S(=O)(=O)c3ccc(C)cc3)cnc3cc(OC)c(OC)cc23)cc1 | inactive: 74% |
| COc1ccccc1NC(=O)CSC1=Nc2ccccc2C2=NC(CC(=O)NCCc3ccccc3)C(=O)N12 (stereo not drawn) | inactive: 94% |
| COc1ccc(CCNC(=O)c2ccc3c(c2)sc2nc(-c4ccc(C)cc4)cn23)cc1OC | inactive: 85% |
| NC(=S)/N=C1/CCN(c2ccccc2)N1 | inactive: 98% |
| Cc1ccc(NC(=O)C2CCN(S(=O)(=O)c3ccc4c(c3)CCCC(=O)N4)CC2)c(Cl)c1 | inactive: 51% |
| CCn1c(SCc2cccc(C(=O)O)c2)nnc1-c1ccco1 | inactive: 97% |

| Compound | survival |
| --- | --- |
| CCc1ccccc1NC(=O)Cn1nnc(-c2nc(-c3ccncc3)no2)c1N | inactive: 68% |
| COc1cc(NS(=O)(=O)c2ccc3c(c2)CC(=O)N3)cc(OC)c1OC | inactive: 76% |
| COc1ccc(-c2noc(=O)n2CCCC#N)cc1OC | inactive: 99% |
| O=C(NCc1ccccc1Cl)c1ccc2c(c1)nnn2C1CCCC1 | inactive: 90% |
| COc1cccc2c1Oc1ncccc1N(c1ccc(C(=O)NCc3ccccc3C)s1)C2 | inactive: 71% |
| CCCCC(=O)Nc1ccc2nc(SCC(=O)N3CCOCC3)sc2c1 | inactive: 94% |
| CCOc1ccc(NC(=O)CN2CCN(CC(=O)Nc3ccc(N(CC)CC)cc3)CC2)cc1 | inactive: 80% |
| COc1cc(NS(=O)(=O)c2ccc3[nH]c(=O)[nH]c3c2)cc(OC)c1 | inactive: 80% |
| O=C(CCCc1ccccc1)NC1CC(=O)N(c2ccc(Cl)cc2)C1 (stereo not drawn) | inactive: 83% |
| CC1=C(c2ccc(C(C)C)cc2)S(=O)(=O)N=C1N1CCN(c2ccc(F)cc2)CC1 | inactive: 82% |
| Cc1cccc(-c2nc3c4ccccc4nc(N4CCN(c5ccc(F)cc5)CC4)n3n2)c1 | inactive: 74% |
| Cc1ccc(OCC(=O)Nc2nnc(SCc3cc(=O)c4ccccc4[nH]3)s2)cc1C | inactive: 69% |
| COc1ccccc1C(=O)n1nc(-c2cccnc2)nc1NCc1ccccc1 | inactive: 87% |
| O=C(O)c1cccc(NC2SC(=O)N(c3ccccc3)C2=O)c1 (stereo not drawn) | inactive: 114% |
| Cc1ccc(Cl)cc1NC(=O)c1ccc(NC(=O)N2CCSc3ncccc32)cc1 | inactive: 71% |
| OCCNCC(O)Cn1ccc2ccccc21 (stereo not drawn) | inactive: 113% |
| COc1ccc(NC(=O)c2coc(=O)c3ccccc23)cc1OC | inactive: 144% |
| CC1=Nc2cc(C(=O)NC3CCCCC3)ccc2Sc2ccc(Cl)cc21 | inactive: 94% |
| CC(C)Sc1ncnc2c1cnn2-c1ccccc1 | inactive: 96% |
| Cc1ccc2c(CNC3CCCC3)c(C(=O)O)n(Cc3ccc(F)cc3)c2c1 | inactive: 111% |

| Compound | survival |
| --- | --- |
| CN(C(=O)CSc1nc2ccccc2n1CC(=O)N(C)C1CCCCC1)c1ccccc1 | inactive: 87% |
| COc1ccc(NC(=O)C2CCN(S(=O)(=O)c3cc(-c4noc(C)n4)ccc3C)CC2)cc1 | inactive: 120% |
| Cc1cccc(NC(=O)CN2C(=O)CCn3nc(-c4cccn4C)cc32)c1C | inactive: 56% |
| Cc1ccc(C)c(NC(=O)c2cc(S(=O)(=O)NCCc3ccccc3)ccc2F)c1 | inactive: 81% |
| Cc1ccc(-c2csc3nnc(SCC(N)=O)n23)cc1 | inactive: 118% |
| O=S(=O)(NCc1ccncc1)c1ccc(C2CCCCC2)cc1 | inactive: 114% |
| CCOC(=O)C1CCCN(C(=O)c2ccc3c(c2)N(Cc2ccc(Cl)cc2)C(=O)c2ccccc2S3=O)C1 (stereo not drawn) | inactive: 82% |
| Cc1noc(/C=C/c2ccccc2F)c1S(=O)(=O)N1CCC(C(=O)Nc2ccc(C#N)cc2)CC1 | inactive: 66% |
| CCCCNC(=O)CCn1c(=O)c2ccccc2n(Cc2cccc(Cl)c2)c1=O | inactive: 94% |
| O=C(C1CCN(S(=O)(=O)Cc2ccccc2)CC1)N1CCCc2ccccc21 | inactive: 106% |
| O=C(CSc1nc2ccsc2c(=O)n1-c1ccc(Br)cc1)NCc1ccccc1 | inactive: 80% |
| CCCCN(CC)C(=O)C1CCCN(c2ncnc3c2nc2n3CCCCC2)C1 (stereo not drawn) | inactive: 73% |
| CCOc1ccc(CNC(=O)CCn2c(=O)c3cccn3c3ccc(F)cc32)cc1 | inactive: 72% |
| CCOC(=O)c1ccc(NC(=O)c2ccc(CN3C(=O)CCn4nc(C)cc43)cc2)cc1 | inactive: 132% |
| O=C(CSc1nnc2scc(-c3ccccc3)n12)Nc1ccc(Cl)cc1 | inactive: 53% |
| Cc1ccccc1C(=O)N1CCC(N2CCN(Cc3ccc(F)cc3)C(=O)C2=O)CC1 | inactive: 121% |
| O=C(Nc1cccc(C(F)(F)F)c1)Nc1cccs1 | active: 4% |
| CC1CCN(c2ccc(-c3nc(-c4ccccc4)no3)cc2[N+](=O)[O-])CC1 | inactive: 112% |
